# Source: PubChem BioAssay AID1508623 (National Center for Advancing Translational Sciences (NCATS), 2021)
# Screen size: about 48,000 compounds; about 450 (0.94%) were called active. Not shown: some 19% with an inconclusive outcome. The call rests on the fitted dose curve; in most records, active means well fitted inhibition curve with a large enough effect; inconclusive means small, poorly fitted or top-dose-only effect; inactive means no such curve, though single readings can be large or run the other way. Some of the results follow.
# Test: Primary qHTS for Identification of Small Molecule Inhibitors of Huntingtin Promoter Activity; further: nearly all actives have a fitted effect of over 50% in size
# Conditions: HEK293 HTT promoter firefly luciferase reporter (activity 0% = vehicle and -100% = no light), 24 h; series mostly up to 57.5 µM; activity change, negative = inhibition: at the top concentration
# Summary of the method: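 HEK293 cells carrying firefly luciferase reporters were seeded at 2,500 per well in Opti-MEM and cultured for 24 h. They were then treated with compounds at up to 57.5 uM final for 24 h at 37 degrees C before Dual-Glo luminescence readout.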
# Potency means the concentration at half of the fitted maximal effect.
SMILES,"activity change, negative = inhibition",Potency
Cn1nnnc1SCCNCc1ccc(Cl)c(Cl)c1,inactive: -0.0551%,
Cc1cccc(S(=O)(=O)c2cn(C)c3cc(N4CCN(c5ccccc5)CC4)c(F)cc3c2=O)c1,inactive: 7.78%,
Cc1ccc(Cn2c(C)c3cnn(CC(=O)NCCc4ccc(Cl)cc4)c(=O)c3c2C)cc1,inactive: -9.73%,
COc1cccc(CCNC(=O)c2cnc3sc(N4CCOCC4)nn3c2=O)c1,inactive: -14.6%,
COc1ccc(CNC(=O)c2ccc(NC(=O)N3CCSc4ncccc43)cc2)cc1,inactive: -13.6%,
CCCNC(=O)CN1CCN(c2ccc(NC(=O)c3ccc(OC)cc3)cc2C(=O)O)CC1,inactive: -12.3%,
Cc1ccccc1C(=O)N1CCC(C(=O)Nc2ccc(F)cc2F)CC1,inactive: -12%,
Cc1ccc(S(=O)(=O)c2nc(-c3ccccc3F)oc2NCc2ccccc2)cc1,inactive: 29.1%,
Cc1nc(N2CCOCC2)c2c(C(=O)N3CCN(c4ccccc4)CC3)c(C)oc2n1,inactive: 1.14%,
Cc1c2oc3c(C)ccc(C(=O)N[C@@H]4C(=O)N[C@H](C(C)C)C(=O)N5CCC[C@H]5C(=O)N(C)CC(=O)N(C)[C@@H](C(C)C)C(=O)O[C@@H]4C)c3nc-2c(C(=O)N[C@@H]2C(=O)N[C@H](C(C)C)C(=O)N3CCC[C@H]3C(=O)N(C)CC(=O)N(C)[C@@H](C(C)C)C(=O)O[C@@H]2C)c(N)c1=O,inactive: -38.4%,
Cc1cc2c(cc3c(SCC(=O)Nc4ccc(Cl)cc4F)nncn32)o1,inactive: -6.47%,
COCCCN1C(=O)c2oc3ccccc3c(=O)c2C12C(=O)N(C)c1ccccc12 (centres undefined),inactive: -12.9%,
O=C(COc1ccccc1F)Nc1ccc(OCc2cc(=O)n3ccccc3n2)cc1,inactive: 17.8%,
COc1ccc(CC(=O)N2CCc3cc(OC)c(OC)cc3C2COc2ccc3c(C)cc(=O)oc3c2)cc1OC (centres undefined),inactive: -18.9%,
CCOc1ccc(NC(=O)CCc2c(C)nc3c(-c4ccccc4)c(C)nn3c2C)cc1,inactive: -3.91%,
COC(=O)c1ccc(Cn2c(SCc3ccc(F)cc3)nc3ccncc32)cc1,inactive: -5.06%,
O=c1ccc2cc(S(=O)(=O)Nc3ccc(OC(F)(F)F)cc3)ccc2[nH]1,inactive: -27.1%,
Cc1ccc(CNC(=O)CSC2=Nc3ccccc3N=C(c3ccc(F)cc3)C2)cc1,inactive: -17.5%,
CC(C)CCn1c(=O)c2cccnc2n(CC(=O)Nc2ccccc2F)c1=O,inactive: -12.7%,
Cn1c2ccccc2c2cnn(CC(=O)Nc3ccccc3F)c(=O)c21,inactive: -7.97%,
Cc1cc(C)cc(NC(=O)c2c(C)oc3nc(C)nc(N4CCCC4)c23)c1,inactive: 1.51%,
CCOc1ccc(Nc2nn(-c3ccc(OC(F)(F)F)cc3)nc2C(C)=O)cc1,inactive: -10.9%,
COc1cccc(-c2noc(-c3cc(C(C)C)[nH]n3)n2)c1OC,inactive: 66.6%,
CC(=O)OC[C@H]1O[C@@H](OC(C)=O)[C@H](OC(C)=O)[C@@H]1OC(C)=O,inactive: 0.324%,

SMILES,"activity change, negative = inhibition",Potency
COc1ccccc1CNC(=O)CCNS(=O)(=O)c1ccc2c(c1)oc(=O)n2C,inactive: -4.64%,
O=C(COc1ccc(F)cc1)NCc1ccc2c(c1)CCN2C(=O)c1ccccc1,inactive: -4%,
CNC(=O)c1ccc2c(c1)N(Cc1ccccc1Cl)C(=O)c1ccccc1S2,inactive: -5.29%,
O=C(Cn1c(=O)nc(-c2ccccc2F)c2cc(Cl)ccc21)NCCCc1ccccc1,inactive: -15.3%,
CCc1cccc(C)c1Nc1c(-c2ccsc2)nc2ncccn12,inactive: -29.6%,
COc1ccc(N2CCN(Cc3nnc(-c4ccc5c(c4)OCO5)o3)CC2)cc1,inactive: -9.88%,
Clc1ccc(-c2noc(-c3cccnc3NCc3ccco3)n2)cc1,inactive: 52.4%,
Cc1ccc(-n2nc(C)c3nc(CCC(=O)Nc4cccc(F)c4)c(=O)n(C)c32)cc1,inactive: -1.82%,
Cc1cccc(CNC(=O)CCCN2C(=O)CCn3nc(-c4cccn4C)cc32)c1,inactive: 0%,
COc1ccc2c(c1)c(CC(=O)OCC(=O)O)c(C)n2C(=O)c1ccc(Cl)cc1,inactive,
CCOc1c(Cl)cc(C(=O)N(Cc2ccc(N(C)C)cc2)Cc2ccco2)cc1Cl,inactive: -11.9%,
COc1ccc(CNC(=O)C2CCCN(c3nnc(C)c4c(C)n(-c5ccc(C)cc5)nc34)C2)cc1 (centres undefined),inactive: 0.547%,
CCC(Sc1nc2ncccc2o1)C(=O)Nc1ccc(OC)c(OC)c1 (centres undefined),inactive: 14%,
Cc1ccc2c(=O)cc(C(=O)Nc3sc4c(c3C(=O)NCC3CCCO3)CCCC4)oc2c1 (centres undefined),inactive: -0.466%,
COc1ccc(C2CC(=O)c3cc(-c4nc(-c5cccc(Cl)c5)cs4)c(=O)[nH]c3C2)cc1 (centres undefined),inactive: -18.9%,
O=S(=O)(c1ccc(Cl)cc1Cl)n1ccnc1,inactive: -1.87%,
O=C(Cn1ncc2c3ccccc3n(Cc3ccc(F)cc3)c2c1=O)NCc1ccccn1,inactive: -13.6%,
Cc1ccc(SCC(=O)Nc2ccc3oc(-c4cccc(Cl)c4)nc3c2)cc1,inactive: 6.14%,
O=C(NCc1ccccc1)C(=O)Nc1c2c(nn1-c1ccccc1)CSC2,inactive: -25%,
COc1ccc(OC)c(CNCc2c(C(=O)O)n(Cc3cccc(F)c3)c3cc(OC)ccc23)c1,inactive: -13.6%,
Cc1ccc(C(c2c(O)cc(C)n(Cc3ccco3)c2=O)N2CCC(C)CC2)cc1 (centres undefined),inactive: -5.8%,
CC(=O)OC1C(C)OC(Oc2c(-c3ccc(O)cc3)oc3cc(O)cc(O)c3c2=O)C(O)C1OC(C)=O (centres undefined),inactive: 7.43%,
COc1ccc2cc3[n+](cc2c1OC)CCc1cc2c(cc1-3)OCO2,inactive: -25.5%,
Cc1cc(C)cc(NC(=O)C2CC(=O)N(c3ccccc3)C2)c1 (centres undefined),inactive: -15.3%,

SMILES,"activity change, negative = inhibition",Potency
O=C(CCn1c(=O)c2sccc2n(Cc2ccc(F)cc2Cl)c1=O)NCc1ccc2c(c1)OCO2,inactive: -5.69%,
O=C(Nc1sc2c(c1C(=O)NCC1CCCO1)CCCC2)c1cc(=O)c2ccccc2o1 (centres undefined),inactive: -4.59%,
Cc1ccc(-c2nc3ccccc3o2)cc1NC(=O)Cc1ccc(Cl)cc1,inactive: -6.13%,
Cc1cccc(-c2nc(CN3CCCC(C(=O)NCCc4ccc(Cl)cc4)C3)c(C)o2)c1 (centres undefined),,active: 31.6 µM
Cc1ccc(-c2cc(C(=O)Oc3ccc(C#N)cc3)no2)cc1C,inactive: 15.7%,
COC(=O)c1ccccc1NC(=O)CSc1nc(C)c(Cl)c(C)c1C#N,inactive: -14.1%,
CCCCCCCCCCOCC(O)CN (centres undefined),inactive: -16%,
Cc1ccc2c(c1)c1c(c(=O)n(Cc3ccccc3)c(=O)n1CC(=O)Nc1ccccc1F)n2C,inactive: -1.75%,
COCCNC(=O)CCCn1c(SCC(=O)NCc2ccc(C)cc2)nc2c(sc3ccccc32)c1=O,inactive: -2.18%,
CCC(C)NC(=O)c1sc2nc(C)c(C(=O)Nc3ccc(C)cc3C)c(-c3ccc(NC(C)=O)cc3)c2c1N (centres undefined),inactive: -28.6%,
O=C(O)c1ccc(Cn2c(SCc3ccc(F)cc3)nc3ccncc32)cc1,inactive: 4.54%,
Cc1ccc2nc(NC(=O)CSc3nccn3Cc3ccc(F)cc3)sc2c1,inactive: -16.2%,
COCCNc1ccc2cc(S(=O)(=O)N3CCCCC3)ccc2n1,inactive: 3.16%,
Cc1ccccc1Cn1c(=O)n(-c2ccc(Cl)cc2)c(=O)c2c3c(sc21)CCCC3,inactive: -7.33%,
CCc1ccc(NS(=O)(=O)c2[nH]ncc2C(=O)OC)cc1,inactive: 1.66%,
CC(C)NC(=O)CN1C(=O)CCn2nc(-c3cn(C)c4ccccc34)cc21,inactive: 22.3%,
COc1ccc(OC)c(S(=O)(=O)NCC(c2cccs2)S(=O)(=O)c2ccc(F)cc2)c1 (centres undefined),inactive: -29.4%,
CCCS(=O)(=O)N1CCC(C(=O)NCCOC)CC1,inactive: -10.8%,
O=C(c1cc2c(=O)oc3ccccc3c2s1)N1CCN(c2ccccc2)CC1,inactive: -0.156%,
COc1ccc2c(c1)c1c(c(=O)n(-c3cccc(C)c3)c(=O)n1Cc1cccc(Cl)c1)n2C,inactive: -13.2%,
Cc1ccc(-n2nc(C)c3c(C)cc(=O)n(CC(=O)Nc4cccc(C)c4C)c32)cc1,inactive: -8.14%,
O=C(Nc1cc2c(cc1C(=O)c1ccccc1Br)OCCO2)c1cccc(Cl)c1,inactive: 1.95%,
COc1ccc(-c2nn(-c3ccccc3)cc2C2NC(=O)NC(C)=C2C(=O)OC(C)C)cc1OC (centres undefined),inactive: -3.79%,
Cc1ccc(-c2noc(-c3nnn(-c4cccc(C(F)(F)F)c4)c3N)n2)cc1,inactive: 5.38%,

SMILES,"activity change, negative = inhibition",Potency
O=S(=O)(c1ccc2nc(N3CCN(c4ccccc4F)CC3)ccc2c1)N1CCCCC1,inactive: 1.04%,
Cc1nc(-n2nc(C)c(CCC(C)C)c2C)sc1C(=O)Nc1ccc(Cl)cc1,inactive: -8.04%,
CCOC(=O)c1c(S(=O)(=O)N2CCCC(C(=O)NCc3ccccc3OC)C2)c(C)n(C)c1C (centres undefined),inactive: -8.21%,
CCc1nc(SC)ncc1C(=O)N1CCN(c2cc(C)ccc2C)CC1,inactive: -21.7%,
Cc1ccc(NC(=O)c2ccc(=O)n(Cc3ccccc3C)c2)c(C)c1,inactive: -18.5%,
Cc1ccc(CN2CCCn3nc(C(=O)NCCc4cccc(C)c4)cc3C2=O)cc1,inactive: -36.5%,
Cc1ccc(-c2nc(N3CCCC(C)C3)c3ccccc3n2)cc1 (centres undefined),inactive: -9.74%,
CCc1ccccc1NC(=O)CSc1nc2c(oc3ccccc32)c(=O)n1C,inactive: -11.7%,
NC(=O)C1CCN(S(=O)(=O)c2ccc(N3CCCCS3(=O)=O)cc2)CC1,inactive: -3.52%,
Cc1nn(C)c2c1c(-c1ccccc1)cc(=O)n2CC(=O)NC(C)C,inactive: -4.06%,
COc1cccc(CNC(=O)C2CCCN(c3nc4ccccc4n4cccc34)C2)c1 (centres undefined),inactive: 2.77%,
Cc1ccc(CN2CCCn3nc(C(=O)NCCc4ccccc4Cl)cc3C2=O)cc1,inactive: -25.4%,
COc1ccc(CCNCc2ccc3c(c2)n(C)c(=O)n3C)cc1OC,inactive: -6.57%,
Cc1ccc(CNC(=O)c2ccc3c(O)c(S(=O)(=O)c4ccc(Cl)cc4)c(=O)[nH]c3c2)cc1,inactive: -2.11%,
COc1ccc(C)cc1NC(=O)c1cc(S(=O)(=O)N2CCN(c3cccc(C)c3C)CC2)ccc1F,inactive: 6.1%,
CCCn1c2ccc(F)cc2c2nnc(SCCN(CC)CC)nc21,inactive: -7.15%,
Cc1c(C(=O)Nc2ccccc2Cl)oc2ccc(S(=O)(=O)N3CCCCC3)cc12,inactive: -15.9%,
Cc1ccc(C(=O)Nc2cccc(C(=O)OCc3cc(=O)n4nc(C5CC5)sc4n3)c2)cc1,inactive: -9.52%,
COCC(C)Nc1ncnc2c1cnn2-c1ccc(C)c(C)c1 (centres undefined),inactive: 39.4%,
CCCOc1ccc(C2CC(=O)Nc3c2c(=O)n(C)c(=O)n3C)cc1OC (centres undefined),inactive: -16.3%,
CCOc1ccc(N2CC(NC(=O)C3CC3)CC2=O)cc1 (centres undefined),inactive: -1.57%,
COc1ccc(-n2nc(C(=O)NCc3ccc(F)cc3Cl)c3c4ccccc4n(C)c3c2=O)cc1Cl,inactive: -0.575%,
